Laboratory results: paper PMC5467213, “Architecture of the RNA polymerase II-Paf1C-TFIIS transcription elongation complex” (Nature Communications, 2017)

Experiments:
Ctr9-ΔC913 = target: T1, Ctr9-ΔC913 (S. cerevisiae, UniProt P89105 1-913); experiment: cross-linking; Pol II-Paf1C-TFIIS EC after SEC, 425 μg/ml, 0.5 mM BS3, 30 min, 30 °C; trypsin, Orbitrap Fusion LC-MS/MS, pLink, FDR 1%; details: both partners purified
T1 construct: Ctr9, S. cerevisiae, variant lacking 164 amino acids at its C terminus (Ctr9-ΔC913); also called Ctr9 (in the Pol II-Paf1C-TFIIS EC); source: E. coli BL21 CodonPlus(DE3)RIL, coexpressed with the other subunits; in lysate and purified as part of Paf1C-Ctr9-ΔC913
T1 sequence (looked up): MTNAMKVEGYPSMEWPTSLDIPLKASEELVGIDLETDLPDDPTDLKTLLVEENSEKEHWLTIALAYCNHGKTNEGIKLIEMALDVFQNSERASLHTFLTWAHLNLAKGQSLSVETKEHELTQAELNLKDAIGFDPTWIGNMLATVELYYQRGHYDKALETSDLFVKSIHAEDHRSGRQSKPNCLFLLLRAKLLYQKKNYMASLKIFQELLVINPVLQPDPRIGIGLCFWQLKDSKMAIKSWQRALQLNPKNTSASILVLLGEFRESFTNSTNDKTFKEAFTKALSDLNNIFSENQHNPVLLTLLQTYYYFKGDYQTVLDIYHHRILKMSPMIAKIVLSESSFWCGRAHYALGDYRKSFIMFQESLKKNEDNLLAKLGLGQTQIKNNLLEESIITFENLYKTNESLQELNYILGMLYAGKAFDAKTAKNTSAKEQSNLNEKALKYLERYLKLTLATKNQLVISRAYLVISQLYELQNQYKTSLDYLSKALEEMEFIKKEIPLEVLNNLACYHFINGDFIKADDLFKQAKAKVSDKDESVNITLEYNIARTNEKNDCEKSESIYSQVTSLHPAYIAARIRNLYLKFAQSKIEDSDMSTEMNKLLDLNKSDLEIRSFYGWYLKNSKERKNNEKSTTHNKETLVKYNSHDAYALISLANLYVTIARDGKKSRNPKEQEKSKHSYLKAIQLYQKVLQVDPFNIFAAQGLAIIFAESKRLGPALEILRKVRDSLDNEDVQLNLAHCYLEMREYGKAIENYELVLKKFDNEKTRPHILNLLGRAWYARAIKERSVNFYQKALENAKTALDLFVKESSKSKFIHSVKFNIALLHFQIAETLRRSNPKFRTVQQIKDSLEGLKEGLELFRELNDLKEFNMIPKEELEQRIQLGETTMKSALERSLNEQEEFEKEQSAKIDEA

Rpb2 (Pol II subunit) = target: T2, Rpb2 (Pol II subunit) (yeast, UniProt P08518 1-1224); experiment: as above; details: both partners purified
T2 construct: Rpb2, subunit of yeast Pol II; source: part of purified Pol II

[1] = target: T3, Ctr9 (full length, C-terminal hexahistidine tag) (S. cerevisiae, UniProt P89105 1-1077); experiment: co-purification after coexpression (Ni-NTA, cation exchange, SEC); subunits coexpressed in E. coli from three vectors, cells colysed; Ni-NTA (hexahistidine tag on Ctr9), HiTrap SP cation exchange, Superose 6 size exclusion; SDS-PAGE, subunits confirmed by mass spectrometry; details: partners not purified
T3 construct: Ctr9, S. cerevisiae, full length, amplified from genomic DNA, in pET24b; source: E. coli BL21 CodonPlus(DE3)RIL, coexpressed with the other subunits; in lysate and purified as part of Paf1C; not shown: His6, C-terminal, kept
T3 sequence (looked up): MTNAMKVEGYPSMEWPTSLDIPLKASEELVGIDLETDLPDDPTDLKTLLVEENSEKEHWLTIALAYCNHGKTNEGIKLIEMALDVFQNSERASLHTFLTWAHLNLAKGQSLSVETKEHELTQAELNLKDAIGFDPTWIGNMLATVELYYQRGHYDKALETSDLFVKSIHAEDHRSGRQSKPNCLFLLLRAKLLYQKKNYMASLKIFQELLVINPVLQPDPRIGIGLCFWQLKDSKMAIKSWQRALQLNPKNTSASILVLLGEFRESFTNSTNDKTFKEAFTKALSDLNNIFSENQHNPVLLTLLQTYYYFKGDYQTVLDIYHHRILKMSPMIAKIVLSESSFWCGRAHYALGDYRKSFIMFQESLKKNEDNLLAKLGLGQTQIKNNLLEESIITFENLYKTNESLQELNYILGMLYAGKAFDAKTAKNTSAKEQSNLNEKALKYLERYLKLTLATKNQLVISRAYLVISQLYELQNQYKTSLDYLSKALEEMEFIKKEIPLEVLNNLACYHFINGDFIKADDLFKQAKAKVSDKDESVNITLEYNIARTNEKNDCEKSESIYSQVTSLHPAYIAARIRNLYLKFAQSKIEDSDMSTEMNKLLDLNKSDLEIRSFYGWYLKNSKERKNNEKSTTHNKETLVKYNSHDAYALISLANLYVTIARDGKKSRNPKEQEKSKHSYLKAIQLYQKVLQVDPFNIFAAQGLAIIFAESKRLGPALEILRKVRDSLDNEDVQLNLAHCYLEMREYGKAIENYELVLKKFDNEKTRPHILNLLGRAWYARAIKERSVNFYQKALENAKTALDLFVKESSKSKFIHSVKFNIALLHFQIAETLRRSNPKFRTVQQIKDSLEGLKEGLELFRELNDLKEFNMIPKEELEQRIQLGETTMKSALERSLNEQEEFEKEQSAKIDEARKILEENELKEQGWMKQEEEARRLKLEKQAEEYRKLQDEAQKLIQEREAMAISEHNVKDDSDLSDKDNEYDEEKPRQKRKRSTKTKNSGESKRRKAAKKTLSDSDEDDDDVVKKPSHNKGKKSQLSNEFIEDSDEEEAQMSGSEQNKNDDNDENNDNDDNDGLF

Measured: binding result

Rpb2 (Pol II subunit), sequence (P08518 whole entry): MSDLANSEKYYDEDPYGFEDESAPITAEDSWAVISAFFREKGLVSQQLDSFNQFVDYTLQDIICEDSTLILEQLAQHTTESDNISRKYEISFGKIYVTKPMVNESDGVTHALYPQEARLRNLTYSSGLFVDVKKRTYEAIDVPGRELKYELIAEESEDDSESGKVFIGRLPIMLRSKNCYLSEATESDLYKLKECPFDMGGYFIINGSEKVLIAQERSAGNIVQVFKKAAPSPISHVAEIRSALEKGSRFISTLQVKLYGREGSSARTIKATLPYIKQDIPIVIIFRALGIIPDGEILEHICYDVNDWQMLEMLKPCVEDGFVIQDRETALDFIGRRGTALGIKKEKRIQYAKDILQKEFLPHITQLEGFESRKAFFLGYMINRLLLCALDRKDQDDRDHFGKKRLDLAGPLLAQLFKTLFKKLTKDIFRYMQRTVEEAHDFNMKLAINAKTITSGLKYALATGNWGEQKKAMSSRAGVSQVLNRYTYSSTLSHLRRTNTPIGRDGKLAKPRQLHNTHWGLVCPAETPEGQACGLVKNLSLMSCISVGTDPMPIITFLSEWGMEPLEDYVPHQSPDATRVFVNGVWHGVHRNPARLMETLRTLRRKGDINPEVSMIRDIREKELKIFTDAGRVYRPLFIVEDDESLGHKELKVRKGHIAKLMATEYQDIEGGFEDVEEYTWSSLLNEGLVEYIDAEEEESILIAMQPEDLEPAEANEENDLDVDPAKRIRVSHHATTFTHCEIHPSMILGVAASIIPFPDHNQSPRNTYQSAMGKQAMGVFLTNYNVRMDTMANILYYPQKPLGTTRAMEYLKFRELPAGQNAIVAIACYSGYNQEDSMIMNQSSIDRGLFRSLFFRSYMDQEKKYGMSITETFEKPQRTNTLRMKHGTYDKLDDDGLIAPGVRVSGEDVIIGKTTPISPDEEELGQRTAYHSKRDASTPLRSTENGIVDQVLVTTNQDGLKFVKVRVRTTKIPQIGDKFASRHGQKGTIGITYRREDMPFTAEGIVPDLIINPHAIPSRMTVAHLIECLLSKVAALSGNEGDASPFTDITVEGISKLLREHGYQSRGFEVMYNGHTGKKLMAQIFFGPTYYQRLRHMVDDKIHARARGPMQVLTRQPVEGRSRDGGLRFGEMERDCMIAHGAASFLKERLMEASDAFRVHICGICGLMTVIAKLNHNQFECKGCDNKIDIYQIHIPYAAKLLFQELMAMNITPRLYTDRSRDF

B1: Rtf1 (natural protein)
chain: not shown
notes: Rtf1, S. cerevisiae, full length, amplified from genomic DNA; source: E. coli BL21 CodonPlus(DE3)RIL, coexpressed with Cdc73; in lysate and purified as part of Paf1C
binds: Ctr9-ΔC913 | Rpb2 (Pol II subunit) | [1]
